Test results reported in PubChem BioAssay AID360 (National Center for Advancing Translational Sciences (NCATS), 2006).
Out of some 48,000 compounds screened, about 550 (1.1%) were called active. Not shown: some 4% with an inconclusive outcome. Rule as the data show it: active = potency below about 15 µM; inconclusive = mostly about 16 µM to 33 µM; inactive = weaker than that. Some of the results follow.

target: Lysosomal acid glucosylceramidase (Homo sapiens) (UniProt P04062); test: Glucocerebrosidase; details: purified enzyme, resorufin glucoside fluorescence (screen aimed at inhibitors), 20 min;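 also: the screen sought inhibitors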
Outline: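 Wild-type enzyme at 0.2 nM final in 50mM citric acid/KH2PO4, 10mM sodium taurocholate, 0.01% tween-20, pH 5.9, with resorufin beta-D-glucopyranoside at 30 uM final. Compounds titrated, 20 min at RT, red fluorescence read; AC50 from titration.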
Potency is read from the fitted curve at half-maximal effect.

Chain of UniProt P04062 (P04062 whole entry, looked up): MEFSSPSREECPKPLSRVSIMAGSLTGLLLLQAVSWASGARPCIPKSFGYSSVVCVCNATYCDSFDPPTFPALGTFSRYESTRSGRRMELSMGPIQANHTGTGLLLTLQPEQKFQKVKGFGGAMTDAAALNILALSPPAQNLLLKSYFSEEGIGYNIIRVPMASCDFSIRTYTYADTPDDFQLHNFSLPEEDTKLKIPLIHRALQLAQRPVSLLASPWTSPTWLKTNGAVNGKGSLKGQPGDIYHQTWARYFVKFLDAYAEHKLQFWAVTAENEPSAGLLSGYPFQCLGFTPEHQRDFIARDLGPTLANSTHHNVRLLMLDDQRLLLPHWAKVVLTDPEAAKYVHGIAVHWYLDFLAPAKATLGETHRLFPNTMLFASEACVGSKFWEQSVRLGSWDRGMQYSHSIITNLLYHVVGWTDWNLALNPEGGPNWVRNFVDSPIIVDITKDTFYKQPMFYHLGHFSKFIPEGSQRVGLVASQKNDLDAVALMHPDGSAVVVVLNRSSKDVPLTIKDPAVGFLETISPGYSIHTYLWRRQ

Potency, inactive:
Cc1ccc(Nc2nc(CSc3nnnn3C)cs2)cc1 > 76.9 µM
COc1ccc(-c2csc(Cc3nnc(N4CCOCC4)n3-c3ccccc3)n2)cc1 > 76.9 µM
Cn1c(=O)c(C(=O)CSc2nncs2)c(N)n(Cc2ccccc2)c1=O > 76.9 µM
C=CCN1CC(O)=C(c2ccccc2)C1=N > 76.9 µM
N#Cc1cnc(Nc2nc3ccccc3o2)nc1-c1ccccc1 > 76.9 µM
O=C(NCc1ccco1)c1ccc2c(=O)n(CCC3=CCCCC3)c(=O)[nH]c2c1 > 76.9 µM
CC1(C)Cc2c(sc3c2c(=N)n(Cc2ccco2)c(=O)n3CC(=O)Nc2ccccc2)CO1 > 76.9 µM
CC(=O)NC1C(=O)N=C(SCC(=O)NC2CCCCC2)NC1=O (centres undefined) > 76.9 µM
Cc1nc2ccc(S(=O)(=O)NCC(=O)N(C)Cc3ccco3)cc2s1 > 76.9 µM
CCCCNC(=O)c1ccc(NC(=O)C2CCCO2)cc1 (centres undefined) > 76.9 µM
CN(C(=O)C1CCCO1)c1nnc(-c2ccccn2)s1 (centres undefined) > 76.9 µM
COc1ccccc1-n1cnnc1SC1CCOC1=O (centres undefined) > 76.9 µM
O=c1oc2ccccc2n1CCCCCn1c(=O)oc2ccccc21 > 76.9 µM
Cn1c(C(=O)N(Cc2ccccc2)Cc2ccccn2)cc2sccc21
Cc1cccc(-n2c(SCC(=O)NCc3ccco3)nc3ccccc3c2=O)c1 > 76.9 µM
CC(C)(C)C(=O)Oc1cc(N)n(S(=O)(=O)c2ccccc2)n1 > 76.9 µM
COC(=O)CSc1ncc(C#N)c(N)n1 > 76.9 µM
CCCn1c(NC(=O)C2COc3ccccc3O2)nc2ccccc21 (centres undefined) > 76.9 µM
CC(C)n1c(NCc2cccs2)nc2ccccc21 > 76.9 µM
Cc1c(OCc2nn[nH]n2)ccc2c3c(c(=O)oc12)CCCC3 > 76.9 µM
O=C(CCSc1nc(-c2ccco2)cc(C(F)(F)F)n1)NCCc1ccccc1 > 76.9 µM
CCc1nc2oc3ccccc3c(=O)c2c(=O)n1Cc1ccccc1 > 76.9 µM
CCn1c(SCC(=O)Nc2cc(C)on2)nnc1-c1cccnc1 > 76.9 µM
Clc1ccc(C2CC(c3ccco3)n3ncnc3N2)cc1Cl (centres undefined) > 76.9 µM
CCC(c1nnnn1Cc1ccc2c(c1)OCO2)N1CCN(c2ccc(OC)cc2)CC1 (centres undefined) > 76.9 µM
CC(=O)Nc1ccc(S(=O)(=O)N2CCSC2c2ccc(C)cc2)cc1 (centres undefined) > 15.4 µM
COC(=O)c1[nH]nc2c1C(=O)N(C1CCCCC1)C2=O > 76.9 µM
Cc1cc(C)n(C(=O)CNc2cccc(Cl)c2C)n1 > 76.9 µM
CN(c1ccc(C(=O)N2CCN(c3ccc(F)cc3)CC2)cc1)S(C)(=O)=O > 76.9 µM
Cc1cc(Nc2nc3ccccc3[nH]c2=O)n(-c2ccccc2)n1 > 76.9 µM
COc1ccc(C2C(C(C)=O)=C(O)C(=O)N2c2cccnc2)c(OC)c1 (centres undefined) > 76.9 µM
CCc1c(C)nc2ncnn2c1N1CCCC(C(=O)NCCc2ccc(OC)cc2)C1 (centres undefined) > 76.9 µM
CN(CC(O)COCc1cccs1)C1CCCCC1 (centres undefined) > 76.9 µM
Cc1c(Br)cc(C(=O)NCc2ccco2)c(C)c1C > 76.9 µM
Cc1cc(NC(=O)c2ccc(COc3ccc(Cl)c(C)c3)o2)no1 > 76.9 µM
CC1(c2ccc(Cl)cc2)NC(=O)N(CC(=O)N2CCCC2)C1=O (centres undefined) > 76.9 µM
N#Cc1nc(-c2ccc(OCc3ccccc3)cc2)oc1NCCCN1CCOCC1
CC(C)N(CCNC(=O)C1CCC(=O)N1Cc1ccc(F)cc1)Cc1ccccc1 (centres undefined) > 76.9 µM
O=C(CNC(=O)c1ccco1)NCC(=O)OCc1ccccc1Br > 76.9 µM
CC(C)(C)n1ncc2c(=O)n(CC(=O)c3ccccc3)cnc21 > 76.9 µM
COc1ccc(Cl)cc1NC(=O)C1CC(=O)N(c2ccc(F)cc2)C1 (centres undefined) > 76.9 µM
O=C(O)C1CCCN1S(=O)(=O)c1ccc2[nH]c(=O)c(=O)[nH]c2c1 (centres undefined) > 76.9 µM
Cc1ccc(Cl)cc1N1CCN(S(=O)(=O)c2ccc3c(c2)oc(=O)n3C)CC1 > 76.9 µM
O=C(CSc1nnc(-c2ccccn2)n1Cc1ccccc1)NC1CCCC1 > 76.9 µM
Cc1cc2oc(=O)cc(CN3CCC(C)CC3)c2cc1Cl > 76.9 µM
Cc1ccc(C2CC(=O)Nc3sc(C(N)=O)c(N)c32)cc1 (centres undefined) > 76.9 µM
O=C(NC1CCCCC1)N(CCN1CCCC1)Cc1cc2cc3c(cc2[nH]c1=O)OCCO3
CS(=O)(=O)N(CC(=O)NCc1ccncc1)Cc1ccc(Cl)cc1 > 76.9 µM
CCCCc1ccc(S(=O)(=O)Nc2cc(C)on2)cc1 > 76.9 µM
CC(C)CCNc1nc2c(c(=O)[nH]c(=O)n2C)n1CC(O)COC(C)C (centres undefined) > 76.9 µM
CCN(CC(=O)NCc1ccc(F)cc1)Cc1nc2ccccc2c(=O)[nH]1 > 76.9 µM
O=C(Nc1ccc2c(c1)OCO2)c1cccs1 > 76.9 µM
CCCNC(=O)c1c[nH]c2ccc(S(=O)(=O)N(C)c3ccc(OCC)cc3)cc2c1=O > 76.9 µM
CCOc1ccc(-c2cc(CCCC(=O)Nc3cc(OC)ccc3OC)no2)cc1 > 76.9 µM
O=C(O)c1cccnc1Oc1ccccc1 > 76.9 µM
OCCN1CCN(C(c2cccs2)c2ccc3cccnc3c2O)CC1 (centres undefined)
O=S(=O)(NCC1OCCc2ccccc21)c1ccc(S(=O)(=O)N2CCOCC2)cc1 (centres undefined) > 76.9 µM

Potency, active:
COC(=O)c1cc2c(cc1Cl)SC(=NCCCN1CCOCC1)NS2(=O)=O 8.27 µM
COc1ccc(N2CCN(Cc3nc(N)nc(Nc4ccc(C)c(Cl)c4)n3)CC2)cc1 4.02 µM
